# Some of the results follow. Single values of this set are uncertain. Values with irradiation are relative to irradiated vehicle.
# Test system: A549-Dual
# Experiment: ISRE reporter (Lucia luciferase) activity, viability-corrected, relative to vehicle (fold change vs vehicle); higher = more activation of STING-IRF / NF-kB immune response reporter
# Conditions: 10 µM; irradiation: 8 Gy/4 fr
row,SMILES,ISRE reporter
1,O=C1OC(C(O)CO)C(O)C1O.[NaH] (centres undefined) [Sodium ascorbate],0.793
2,CCN1CCN(C(=O)NC(C(=O)NC2C(=O)N3C2SC(C)(C)C3C(=O)[O-])c2ccccc2)C(=O)C1=O.[Na+] (centres undefined) [Piperacillin Sodium],0.794
3,O=c1cc(-c2ccc(O)c(O)c2)oc2cc(O)cc(O)c12 [Luteolin],1.06
4,CCC(=O)OC1C(OC2C(C)C(OC3CC(C)(OC)C(O)C(C)O3)C(C)C(=O)OC(CC)C(C)(O)C(O)C(C)C(=O)C(C)CC2(C)O)OC(C)CC1N(C)C.CCCCCCCCCCCCOS(=O)(=O)O (centres undefined) [Erythromycin estolate],1.86
5,CN1CCN2c3ccccc3Cc3ccccc3C2C1.Cl (centres undefined) [Mianserin HCl],0.953
6,CCN(CC)CCNC(=O)c1cc(Cl)c(N)cc1OC.Cl [Metoclopramide HCl],0.831
7,Cl.N=C(N)NC(=N)NCCc1ccccc1 [Phenformin HCl],0.302
8,C=C1CCC(O)C/C1=C/C=C1\CCCC2(C)C1CCC2C(C)/C=C/C(C)C(C)C (centres undefined) [Vitamin D2],0.282
9,CCN(CC)CCOc1ccc(/C(=C(\Cl)c2ccccc2)c2ccccc2)cc1.O=C(O)CC(O)(CC(=O)O)C(=O)O [Clomifene citrate],0.395
10,C#CC1(O)CCC2C3CCc4cc(OC5CCCC5)ccc4C3CCC21C (centres undefined) [Quinestrol],0.851
11,NCCC(O)C(=O)NC1CC(N)C(OC2OC(CN)C(O)C(O)C2O)C(O)C1OC1OC(CO)C(O)C(N)C1O.O (centres undefined) [Amikacin hydrate],0.773
12,O=C1OC2(c3ccc(O)cc3Oc3cc(O)ccc32)c2ccccc21 [Fluorescein],1.39
13,COc1cc(/C=C/C(=O)OC2CCC34CC35CCC3(C)C(C(C)CCC=C(C)C)CCC3(C)C5CCC4C2(C)C)ccc1O (centres undefined) [Gamma-Oryzanol],0.627
14,NC1CONC1=O [L-Cycloserine],0.893
15,CCN1CCN(c2cc3c(cc2F)c(=O)c(C(=O)O)cn3C2CC2)CC1 [Enrofloxacin],0.78
16,OCC1OC(Oc2ccc(O)cc2)C(O)C(O)C1O (stereo not drawn) [alpha-Arbutin],0.711
17,CS(=O)(=O)n1cc2c(n1)CN(C1COC(c3cc(F)ccc3F)C(N)C1)C2 (centres undefined) [Omarigliptin (MK-3102)],1.03
18,COC1CC(OC2C(C)OC(OC3/C(C)=C/CC4CC(CC5(C=CC(C)C(C6CCCCC6)O5)O4)OC(=O)C4C=C(C)C(O)C5OC/C(=C\C=C\C3C)C45O)CC2OC)OC(C)C1O (centres undefined) [Doramectin],2.26
19,CN(Cc1ccc(C(C)(C)C)cc1)Cc1cccc2ccccc12.Cl [Butenafine HCl],0.474
20,COC(=O)NC(C(=O)N1CCCC1c1ncc(-c2ccc3c(c2)OC(c2ccccc2)n2c-3cc3cc(-c4cnc(C5CCCN5C(=O)C(NC(=O)OC)C(C)C)[nH]4)ccc32)[nH]1)C(C)C (centres undefined) [Elbasvir],1.26

row,SMILES,ISRE reporter
1,CC1Cc2ccccc2N1NC(=O)c1ccc(Cl)c(S(N)(=O)=O)c1 (centres undefined) [Indapamide],0.853
2,CCC1OC(=O)CC(O)C(C)C(OC2OC(C)C(OC3CC(C)(O)C(O)C(C)O3)C(N(C)C)C2O)C(CC=O)CC(C)C(=O)/C=C/C(C)=C/C1COC1OC(C)C(O)C(OC)C1OC (centres undefined) [Tylosin],0.886
3,N[C@H](CO)C(=O)O [(R)-Serine],1.4
4,O=C(CS(=O)Cc1ccco1)NC/C=C\COc1cc(CN2CCCCC2)ccn1 (centres undefined) [Lafutidine],0.87
5,O=C[C@H](O)[C@H](O)[C@H](O)CO [D-Ribose],0.672
6,NC(=O)c1cccnc1 [Nicotinamide (Vitamin B3)],0.734
7,CC1(C(=O)O)CCC2(C)CCC3(C)C(=CC(=O)C4C5(C)CCC(OC6OC(C(=O)[O-])C(O)C(O)C6OC6OC(C(=O)[O-])C(O)C(O)C6O)C(C)(C)C5CCC43C)C2C1.[K+].[K+] (centres undefined) [Dipotassium glycyrrhizinate],1.05
8,CCc1c(Cl)c(O)c(Cl)c(O)c1C(=O)OC1C(C)OC(OC/C2=C\C=C\CC(O)/C(C)=C\C(CC)C(OC3OC(C)(C)C(OC(=O)C(C)C)C(O)C3O)/C(C)=C/C(C)=C/CC(C(C)O)OC2=O)C(OC)C1O (stereo in doubt) [Fidaxomicin],1.11
9,Cl.OC(CNCC(O)C1CCc2cc(F)ccc2O1)C1CCc2cc(F)ccc2O1 (centres undefined) [Nebivolol HCl],0.483
10,O=C(Nc1ccccc1)c1ccccc1O [Salicylanilide],0.323
11,COCCCOc1cc(CC(CC(N)C(O)CC(C(=O)NCC(C)(C)C(N)=O)C(C)C)C(C)C)ccc1OC (centres undefined) [Aliskiren],0.533
12,CSc1ccc2c(c1)N(CCC1CCCCN1C)c1ccccc1S2.Cl (centres undefined) [Thioridazine hydrochloride],0.715
13,CC(OCC1(c2ccccc2)CCC2(CCC(=O)N2)CN1)c1cc(C(F)(F)F)cc(C(F)(F)F)c1 (centres undefined) [Rolapitant],0.139
14,Cc1ccc(S(=O)(=O)[N]([Na])Cl)cc1 [Chloramine-T],0.705
15,CCN(CC)CCOC(=O)c1ccc(N)cc1 [Procaine],0.659
16,CCCCOc1ccc(OCCCN2CCOCC2)cc1.Cl [Pramoxine HCl],1.3
17,Cc1ccsc1/C=C/C1=NCCCN1C.O=C(O)C(O)C(O)C(=O)O [Morantel tartrate],0.64
18,CC(N)C12CC3CC(CC(C3)C1)C2.Cl (centres undefined) [Rimantadine Hydrochloride],0.95
19,O=CC(O)C(O)C(O)CO (centres undefined) [Xylose],0.846

# From the supplement of paper PMC9174493
